# The supplement of paper PMC8728848
# Some of the results follow.
# B1: Gal 3C (Homo sapiens), P17931 (protein)
# chain: YGAPAGPLIVPYNLPLPGGVVPRMLITILGTVKPNANRIALDFQRGNDVAFHFNPRFNENNRRVIVCNTKLDNNWGREERQSVFPFESGKPFKIQVLVEPDHFKVAVNDAHLLQYNHRVKKLNEISKLGISGDIDLTSASYTMI
# Tests used:
# Experiment in all cases: glycan array binding signal (z-score within array); higher = stronger binding
# Details in all cases: glycan notation: IUPAC condensed, linker removed
# [1] = biological target: Fuc(a1-2)Gal
# Procedure, shortened: (§1)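 Glycan array binding is given as a within-array Z-score, which can be read as non-binding when negative. The arrays, 3228 of them, came from the Consortium for Functional Glycomics database and were retained only where the protein sequence was available. Z-scores were averaged across arrays of the same protein sequence at different concentrations or buffers and across linkers.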
# [2] = biological target: Fuc(a1-2)Gal(b1-3)GalNAc
# Procedure, shortened: as §1
# [3] = biological target: Fuc(a1-2)Gal(b1-3)GalNAc(a1-3)[Fuc(a1-2)]Gal(b1-4)Glc
# Procedure, shortened: as §1
# [4] = biological target: Fuc(a1-2)Gal(b1-3)GalNAc(a1-3)[Fuc(a1-2)]Gal(b1-4)GlcNAc
# Procedure, shortened: as §1
# [5] = biological target: Fuc(a1-2)Gal(b1-3)GalNAc(b1-3)Gal
# Procedure, shortened: as §1
# [6] = biological target: Fuc(a1-2)Gal(b1-3)GalNAc(b1-3)Gal(a1-4)Gal(b1-4)Glc
# Procedure, shortened: as §1
# [7] = biological target: Fuc(a1-2)Gal(b1-3)GalNAc(b1-4)[Neu5Ac(a2-3)]Gal(b1-4)Glc
# Procedure, shortened: as §1
# [8] = biological target: Fuc(a1-2)Gal(b1-3)GlcNAc
# Procedure, shortened: as §1
# [9] = biological target: Fuc(a1-2)Gal(b1-3)GlcNAc(b1-2)Man(a1-3)[Fuc(a1-2)Gal(b1-3)GlcNAc(b1-2)Man(a1-6)]Man(b1-4)GlcNAc(b1-4)GlcNAc
# Procedure, shortened: as §1
# [10] = biological target: Fuc(a1-2)Gal(b1-3)GlcNAc(b1-2)Man(a1-3)[Fuc(a1-2)Gal(b1-3)GlcNAc(b1-2)Man(a1-6)]Man(b1-4)GlcNAc(b1-4)[Fuc(a1-6)]GlcNAc
# Procedure, shortened: as §1
# [11] = biological target: Fuc(a1-2)Gal(b1-3)GlcNAc(b1-3)Gal(b1-4)Glc
# Procedure, shortened: as §1
# [12] = biological target: Fuc(a1-2)Gal(b1-3)GlcNAc(b1-3)GalNAc
# Procedure, shortened: as §1
# [13] = biological target: Fuc(a1-2)Gal(b1-3)GlcNAc(b1-3)[Fuc(a1-2)Gal(b1-3)GlcNAc(b1-6)]GalNAc
# Procedure, shortened: as §1
# [14] = biological target: Fuc(a1-2)Gal(b1-3)GlcNAc(b1-3)[Gal(b1-4)GlcNAc(b1-6)]Gal(b1-4)Glc
# Procedure, shortened: as §1
# [15] = biological target: Fuc(a1-2)Gal(b1-3)GlcNAc(b1-3)[Neu5Ac(a2-6)Gal(b1-4)GlcNAc(b1-6)]Gal(b1-4)Glc
# Procedure, shortened: as §1
# [16] = biological target: Fuc(a1-2)Gal(b1-3)GlcNAc6S
# Procedure, shortened: as §1
# [17] = biological target: Fuc(a1-2)Gal(b1-3)[Fuc(a1-4)]GlcNAc
# Procedure, shortened: as §1
# [18] = biological target: Fuc(a1-2)Gal(b1-3)[Fuc(a1-4)]GlcNAc(b1-2)Man(a1-3)[Fuc(a1-2)Gal(b1-3)[Fuc(a1-4)]GlcNAc(b1-2)Man(a1-3)]Man(b1-4)GlcNAc(b1-4)GlcNAc
# Procedure, shortened: as §1
# [19] = biological target: Fuc(a1-2)Gal(b1-3)[Fuc(a1-4)]GlcNAc(b1-2)Man(a1-3)[Fuc(a1-2)Gal(b1-3)[Fuc(a1-4)]GlcNAc(b1-2)Man(a1-6)]Man(b1-4)GlcNAc(b1-4)[Fuc(a1-6)]GlcNAc(b1-4)[Fuc(a1-6)]GlcNAc
# Procedure, shortened: as §1
# [20] = biological target: Fuc(a1-2)Gal(b1-3)[Fuc(a1-4)]GlcNAc(b1-3)[Fuc(a1-3)[Gal(b1-4)]GlcNAc(b1-6)]Gal(b1-4)Glc
# Procedure, shortened: as §1
# [21] = biological target: Fuc(a1-2)Gal(b1-3)[Fuc(a1-4)]GlcNAc(b1-3)[Gal(b1-4)GlcNAc(b1-6)]Gal(b1-4)Glc
# Procedure, shortened: as §1
# [22] = biological target: Fuc(a1-2)Gal(b1-4)Fuc(a1-3)]GlcNAc(b1-2)Man(a1-3)[Fuc(a1-2)Gal(b1-4)[Fuc(a1-3)]GlcNAc(b1-2)Man(a1-6)]Man(b1-4)GlcNAc(b1-4)GlcNAc
# Procedure, shortened: as §1
# [23] = biological target: Fuc(a1-2)Gal(b1-4)Glc
# Procedure, shortened: as §1
# [24] = biological target: Fuc(a1-2)Gal(b1-4)Glc6S
# Procedure, shortened: as §1
# [25] = biological target: Fuc(a1-2)Gal(b1-4)GlcNAc
# Procedure, shortened: as §1
# [26] = biological target: Fuc(a1-2)Gal(b1-4)GlcNAc(b1-2)Man
# Procedure, shortened: as §1
# [27] = biological target: Fuc(a1-2)Gal(b1-4)GlcNAc(b1-2)Man(a1-3)[Fuc(a1-2)Gal(b1-4)GlcNAc(b1-2)Man(a1-6)]Man(b1-4)GlcNAc(b1-4)GlcNAc
# Procedure, shortened: as §1
# [28] = biological target: Fuc(a1-2)Gal(b1-4)GlcNAc(b1-2)Man(a1-3)[Fuc(a1-2)Gal(b1-4)GlcNAc(b1-2)Man(a1-6)]Man(b1-4)GlcNAc(b1-4)[Fuc(a1-6)]GlcNAc
# Procedure, shortened: as §1
# [29] = biological target: Fuc(a1-2)Gal(b1-4)GlcNAc(b1-2)[Fuc(a1-2)Gal(b1-4)GlcNAc(b1-4)]Man(a1-3)[Fuc(a1-2)Gal(b1-4)GlcNAc(b1-2)Man(a1-6)]Man(b1-4)GlcNAc(b1-4)GlcNAc
# Procedure, shortened: as §1
# [30] = biological target: Fuc(a1-2)Gal(b1-4)GlcNAc(b1-3)Gal(b1-4)GlcNAc
# Procedure, shortened: as §1
binder,measurement,setting,value
B1,glycan array binding signal (z-score),[1],-0.245
same,glycan array binding signal (z-score),[2],-0.289
same,glycan array binding signal (z-score),[3],-0.282
same,glycan array binding signal (z-score),[4],-0.314
same,glycan array binding signal (z-score),[5],-0.365
same,glycan array binding signal (z-score),[6],-0.216
same,glycan array binding signal (z-score),[7],-0.315
same,glycan array binding signal (z-score),[8],-0.253
same,glycan array binding signal (z-score),[9],-0.187
same,glycan array binding signal (z-score),[10],-0.203
same,glycan array binding signal (z-score),[11],-0.217
same,glycan array binding signal (z-score),[12],-0.272
same,glycan array binding signal (z-score),[13],-0.212
same,glycan array binding signal (z-score),[14],-0.284
same,glycan array binding signal (z-score),[15],-0.271
same,glycan array binding signal (z-score),[16],-0.191
same,glycan array binding signal (z-score),[17],-0.313
same,glycan array binding signal (z-score),[18],-0.23
same,glycan array binding signal (z-score),[19],-0.219
same,glycan array binding signal (z-score),[20],-0.367
same,glycan array binding signal (z-score),[21],-0.306
same,glycan array binding signal (z-score),[22],-0.162
same,glycan array binding signal (z-score),[23],-0.334
same,glycan array binding signal (z-score),[24],-0.193
same,glycan array binding signal (z-score),[25],-0.301
same,glycan array binding signal (z-score),[26],-0.286
same,glycan array binding signal (z-score),[27],-0.12
same,glycan array binding signal (z-score),[28],-0.313
same,glycan array binding signal (z-score),[29],-0.314
same,glycan array binding signal (z-score),[30],1.07
